Among the data in ChEMBL document CHEMBL1961873, “Compounds: GSK PKIS; Assays: Nanosyn kinase panel” (2012) are inhibition values, retold here.

Each structure is given as a SMILES string. For some of these results: What follows is the remainder of the data, with few or none of the strong results. This is a selection; strong and weak results do not stand in their true shares.

For assay [1], the target named is RAC-alpha serine/threonine-protein kinase (Homo sapiens) (UniProt P31749). As to conditions: at 0.1 µM.
Assay [2] shares this target. As to conditions: at 1 µM.
The target of assay [3] is RAC-beta serine/threonine-protein kinase (Homo sapiens) (UniProt P31751). As to conditions: at 0.1 µM.
For assay [4] the target is unchanged. As to conditions: at 1 µM.
The target of assay [5] is RAC-gamma serine/threonine-protein kinase (Homo sapiens) (UniProt Q9Y243). As to conditions: at 0.1 µM.
Assay [6] shares this target. As to conditions: at 1 µM.
Assay [7] concerns the target G protein-coupled receptor kinase 6 (Homo sapiens) (UniProt P43250). As to conditions: at 0.1 µM.
Assay [8] shares this target. As to conditions: at 1 µM.
Assay [9] deals with T1, Rhodopsin kinase GRK7 (Homo sapiens) (UniProt Q8WTQ7).
T1 sequence (whole entry): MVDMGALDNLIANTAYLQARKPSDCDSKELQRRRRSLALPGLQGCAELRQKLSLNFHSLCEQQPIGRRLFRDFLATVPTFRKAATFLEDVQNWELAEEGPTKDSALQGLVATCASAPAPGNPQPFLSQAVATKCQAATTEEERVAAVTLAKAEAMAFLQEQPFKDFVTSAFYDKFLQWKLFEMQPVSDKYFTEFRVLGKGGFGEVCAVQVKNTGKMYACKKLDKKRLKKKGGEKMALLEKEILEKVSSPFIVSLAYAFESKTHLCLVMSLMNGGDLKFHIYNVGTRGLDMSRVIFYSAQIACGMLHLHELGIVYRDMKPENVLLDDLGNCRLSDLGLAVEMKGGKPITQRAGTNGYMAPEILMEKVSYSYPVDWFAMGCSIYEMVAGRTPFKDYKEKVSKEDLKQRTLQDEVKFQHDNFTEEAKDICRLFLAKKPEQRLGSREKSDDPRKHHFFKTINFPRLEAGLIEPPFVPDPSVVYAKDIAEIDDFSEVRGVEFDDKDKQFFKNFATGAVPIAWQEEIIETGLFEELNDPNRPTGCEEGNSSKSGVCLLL
As to conditions: at 0.1 µM.

Assay [10] addresses T1, Rhodopsin kinase GRK7 (Homo sapiens). As to conditions: at 1 µM.
The target in assay [11] is Serine/threonine-protein kinase MRCK alpha (Homo sapiens) (UniProt Q5VT25). As to conditions: at 0.1 µM.
For assay [12] the target is unchanged. As to conditions: at 1 µM.
Assay [13] deals with Serine/threonine-protein kinase MRCK beta (Homo sapiens) (UniProt Q9Y5S2). As to conditions: at 0.1 µM.
Assay [14] shares this target. As to conditions: at 1 µM.
For assay [15], the target named is Ribosomal protein S6 kinase alpha-5 (Homo sapiens) (UniProt O75582). As to conditions: at 0.1 µM.
The target is the same in assay [16]. As to conditions: at 1 µM.
For assay [17], the target named is Ribosomal protein S6 kinase alpha-4 (Homo sapiens) (UniProt O75676). As to conditions: at 0.1 µM.
Assay [18] shares this target. As to conditions: at 1 µM.
Assay [19] deals with Ribosomal protein S6 kinase beta-1 (Homo sapiens) (UniProt P23443). As to conditions: at 0.1 µM.
The target is the same in assay [20]. As to conditions: at 1 µM.

Sequence of UniProt O75676 (O75676 whole entry, looked up): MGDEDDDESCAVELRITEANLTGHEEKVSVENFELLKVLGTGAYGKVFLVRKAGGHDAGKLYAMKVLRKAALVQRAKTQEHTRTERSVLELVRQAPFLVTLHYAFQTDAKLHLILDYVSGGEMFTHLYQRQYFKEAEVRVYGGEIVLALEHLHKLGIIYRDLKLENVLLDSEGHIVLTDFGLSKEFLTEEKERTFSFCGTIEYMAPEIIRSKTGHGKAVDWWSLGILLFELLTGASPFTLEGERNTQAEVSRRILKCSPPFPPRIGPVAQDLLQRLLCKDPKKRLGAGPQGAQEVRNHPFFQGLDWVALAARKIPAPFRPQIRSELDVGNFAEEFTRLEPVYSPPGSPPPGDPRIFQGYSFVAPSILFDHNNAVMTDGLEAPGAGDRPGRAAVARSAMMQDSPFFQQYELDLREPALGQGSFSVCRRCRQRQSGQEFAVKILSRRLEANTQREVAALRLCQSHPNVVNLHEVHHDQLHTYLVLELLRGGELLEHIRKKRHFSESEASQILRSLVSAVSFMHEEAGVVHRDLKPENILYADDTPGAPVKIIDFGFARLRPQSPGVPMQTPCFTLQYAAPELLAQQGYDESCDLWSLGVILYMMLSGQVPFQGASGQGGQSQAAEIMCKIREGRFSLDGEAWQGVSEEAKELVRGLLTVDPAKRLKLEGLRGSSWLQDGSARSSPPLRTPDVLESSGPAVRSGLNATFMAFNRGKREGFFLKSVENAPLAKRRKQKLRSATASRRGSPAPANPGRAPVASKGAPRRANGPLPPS
Sequence of UniProt O75582 (O75582 whole entry, looked up): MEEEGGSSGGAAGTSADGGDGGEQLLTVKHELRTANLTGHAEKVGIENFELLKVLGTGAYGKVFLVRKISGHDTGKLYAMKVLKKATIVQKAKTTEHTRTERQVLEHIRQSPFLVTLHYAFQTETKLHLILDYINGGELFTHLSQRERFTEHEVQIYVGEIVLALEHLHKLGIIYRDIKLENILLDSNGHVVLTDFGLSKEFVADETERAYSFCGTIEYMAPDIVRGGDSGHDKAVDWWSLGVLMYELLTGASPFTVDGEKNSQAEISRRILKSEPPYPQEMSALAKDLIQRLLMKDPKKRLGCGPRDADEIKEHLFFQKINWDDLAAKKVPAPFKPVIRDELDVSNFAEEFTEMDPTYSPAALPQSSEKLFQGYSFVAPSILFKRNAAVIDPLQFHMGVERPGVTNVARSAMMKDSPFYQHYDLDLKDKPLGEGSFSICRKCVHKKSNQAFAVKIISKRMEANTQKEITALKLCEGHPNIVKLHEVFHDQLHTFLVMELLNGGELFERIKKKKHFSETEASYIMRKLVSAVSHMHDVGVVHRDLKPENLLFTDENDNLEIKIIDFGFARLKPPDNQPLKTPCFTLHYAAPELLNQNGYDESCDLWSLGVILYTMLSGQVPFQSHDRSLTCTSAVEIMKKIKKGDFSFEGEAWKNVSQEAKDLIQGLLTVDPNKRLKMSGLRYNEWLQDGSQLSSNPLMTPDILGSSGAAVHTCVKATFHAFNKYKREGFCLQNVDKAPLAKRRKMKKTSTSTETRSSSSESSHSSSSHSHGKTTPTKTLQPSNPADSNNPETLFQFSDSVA
Sequence of UniProt Q9Y5S2 (Q9Y5S2 whole entry): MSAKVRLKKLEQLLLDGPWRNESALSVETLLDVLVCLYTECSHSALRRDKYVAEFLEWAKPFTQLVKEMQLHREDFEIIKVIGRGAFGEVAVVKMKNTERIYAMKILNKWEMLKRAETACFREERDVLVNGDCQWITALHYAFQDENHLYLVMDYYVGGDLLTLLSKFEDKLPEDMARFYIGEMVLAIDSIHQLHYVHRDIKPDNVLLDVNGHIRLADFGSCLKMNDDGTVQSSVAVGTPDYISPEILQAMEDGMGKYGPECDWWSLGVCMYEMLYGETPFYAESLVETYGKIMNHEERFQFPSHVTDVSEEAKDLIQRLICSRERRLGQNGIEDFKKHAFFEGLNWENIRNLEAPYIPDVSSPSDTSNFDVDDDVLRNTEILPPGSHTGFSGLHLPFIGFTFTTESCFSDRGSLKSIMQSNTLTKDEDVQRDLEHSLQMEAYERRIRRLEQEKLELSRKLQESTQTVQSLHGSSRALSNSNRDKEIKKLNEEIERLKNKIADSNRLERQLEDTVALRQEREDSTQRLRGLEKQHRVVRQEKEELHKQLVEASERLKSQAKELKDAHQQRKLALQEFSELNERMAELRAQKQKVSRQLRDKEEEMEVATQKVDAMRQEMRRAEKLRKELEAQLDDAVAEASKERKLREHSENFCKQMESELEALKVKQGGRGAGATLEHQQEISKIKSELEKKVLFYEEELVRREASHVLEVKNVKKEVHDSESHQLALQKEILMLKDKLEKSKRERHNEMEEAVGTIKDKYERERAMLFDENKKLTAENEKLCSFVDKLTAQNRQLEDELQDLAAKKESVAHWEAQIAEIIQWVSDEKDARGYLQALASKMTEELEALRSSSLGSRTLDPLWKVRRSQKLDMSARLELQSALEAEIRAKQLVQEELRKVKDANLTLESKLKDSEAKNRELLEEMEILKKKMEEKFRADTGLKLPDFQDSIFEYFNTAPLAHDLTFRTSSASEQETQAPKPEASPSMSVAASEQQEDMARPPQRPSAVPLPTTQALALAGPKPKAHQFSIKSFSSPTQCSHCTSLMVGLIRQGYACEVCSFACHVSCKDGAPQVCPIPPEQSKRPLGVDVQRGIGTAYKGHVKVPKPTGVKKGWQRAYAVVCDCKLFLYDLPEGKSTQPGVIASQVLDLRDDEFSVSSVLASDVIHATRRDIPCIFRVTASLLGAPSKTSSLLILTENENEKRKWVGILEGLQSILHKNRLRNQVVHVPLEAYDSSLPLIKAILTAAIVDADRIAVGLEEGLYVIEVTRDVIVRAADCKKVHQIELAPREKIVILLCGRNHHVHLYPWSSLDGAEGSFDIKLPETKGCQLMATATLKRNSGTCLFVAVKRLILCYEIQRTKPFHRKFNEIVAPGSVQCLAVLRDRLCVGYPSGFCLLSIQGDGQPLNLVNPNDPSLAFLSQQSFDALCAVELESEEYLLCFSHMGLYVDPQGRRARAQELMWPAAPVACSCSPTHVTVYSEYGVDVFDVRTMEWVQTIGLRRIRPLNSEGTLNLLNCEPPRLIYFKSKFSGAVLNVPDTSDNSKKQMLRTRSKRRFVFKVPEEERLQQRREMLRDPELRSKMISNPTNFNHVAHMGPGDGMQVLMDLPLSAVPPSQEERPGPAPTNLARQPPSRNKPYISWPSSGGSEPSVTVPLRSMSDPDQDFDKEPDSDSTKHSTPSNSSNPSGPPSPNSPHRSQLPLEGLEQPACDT
Sequence of UniProt Q5VT25 (Q5VT25 whole entry): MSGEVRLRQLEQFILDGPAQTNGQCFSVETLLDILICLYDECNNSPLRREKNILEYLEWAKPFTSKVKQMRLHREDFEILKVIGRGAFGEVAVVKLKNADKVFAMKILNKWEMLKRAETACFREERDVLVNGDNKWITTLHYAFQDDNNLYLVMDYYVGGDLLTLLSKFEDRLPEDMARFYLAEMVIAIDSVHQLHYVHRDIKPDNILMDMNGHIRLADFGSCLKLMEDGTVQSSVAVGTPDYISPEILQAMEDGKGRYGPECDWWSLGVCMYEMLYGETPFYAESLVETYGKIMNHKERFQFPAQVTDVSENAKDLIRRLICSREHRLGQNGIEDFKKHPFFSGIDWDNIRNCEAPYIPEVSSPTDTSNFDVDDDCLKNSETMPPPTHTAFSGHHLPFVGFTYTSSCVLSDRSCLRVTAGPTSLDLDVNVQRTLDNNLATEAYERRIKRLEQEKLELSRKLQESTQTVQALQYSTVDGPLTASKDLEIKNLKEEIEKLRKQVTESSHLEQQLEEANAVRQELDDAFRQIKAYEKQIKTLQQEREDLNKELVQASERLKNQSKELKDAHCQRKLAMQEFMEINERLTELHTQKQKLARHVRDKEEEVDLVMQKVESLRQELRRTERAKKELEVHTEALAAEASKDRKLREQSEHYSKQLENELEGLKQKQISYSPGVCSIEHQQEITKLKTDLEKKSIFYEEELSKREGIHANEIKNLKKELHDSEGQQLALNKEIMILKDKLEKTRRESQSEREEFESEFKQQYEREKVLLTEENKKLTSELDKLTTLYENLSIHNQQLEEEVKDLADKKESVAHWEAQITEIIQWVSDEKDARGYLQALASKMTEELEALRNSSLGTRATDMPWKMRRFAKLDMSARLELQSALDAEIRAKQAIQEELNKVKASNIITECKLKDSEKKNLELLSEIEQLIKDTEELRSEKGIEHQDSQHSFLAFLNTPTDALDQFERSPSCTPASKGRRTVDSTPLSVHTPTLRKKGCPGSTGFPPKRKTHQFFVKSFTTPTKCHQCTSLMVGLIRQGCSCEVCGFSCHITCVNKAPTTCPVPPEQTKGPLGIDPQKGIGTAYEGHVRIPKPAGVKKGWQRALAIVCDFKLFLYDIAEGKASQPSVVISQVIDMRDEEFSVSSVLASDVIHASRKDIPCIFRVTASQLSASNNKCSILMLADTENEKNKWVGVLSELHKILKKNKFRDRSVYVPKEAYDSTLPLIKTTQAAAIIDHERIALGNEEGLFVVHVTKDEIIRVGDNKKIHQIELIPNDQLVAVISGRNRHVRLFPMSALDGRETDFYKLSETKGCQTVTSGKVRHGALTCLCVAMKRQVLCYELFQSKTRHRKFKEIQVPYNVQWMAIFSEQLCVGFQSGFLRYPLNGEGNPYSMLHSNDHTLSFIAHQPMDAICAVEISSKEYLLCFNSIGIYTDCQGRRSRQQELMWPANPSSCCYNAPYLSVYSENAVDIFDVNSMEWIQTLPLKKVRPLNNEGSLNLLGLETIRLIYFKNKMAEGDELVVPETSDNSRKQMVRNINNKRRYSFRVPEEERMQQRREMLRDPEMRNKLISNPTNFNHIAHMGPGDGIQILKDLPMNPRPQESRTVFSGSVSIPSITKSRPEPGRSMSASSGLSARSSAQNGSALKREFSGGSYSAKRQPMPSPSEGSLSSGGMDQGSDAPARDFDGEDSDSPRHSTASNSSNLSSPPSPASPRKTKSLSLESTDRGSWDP

In the case of `O=C1NC(=O)C(c2cccc([N+](=O)[O-])c2)=C1Nc1cc(Cl)c(O)c(Cl)c1`, the inhibition in assay [1] was 0.88%; in assay [2], 0.14%; in assay [3], -0.56%; in assay [4] it was 1.26%; in assay [5], 0.12%; in assay [6], 0.95%. Further, the inhibition in assay [7] was -1.83%; in [8], 0.24%; in assay [9], 6.8%; in assay [10], 4.27%; in assay [11], -1.78%; in assay [12], -0.25%. The inhibition in assay [13] was 0.3%; in assay [14], 0.29%; in assay [15] it was 0.56%; in assay [16] it was -1.6%; in [17], 2.64%; in [18], 1.45%. For the same compound, the inhibition in assay [19] was determined as 1.1%; in assay [20], 0.65%.
Consider `CS(=O)(=O)c1ccc(Oc2nccc(-c3c(-c4ccc(F)cc4)ncn3C3CCNCC3)n2)cc1`, for which the inhibition turned out to be 1.93% in [1]; 1.34% in assay [2]; 1.2% in assay [3]; 2.26% in [4]; 0.65% in assay [5]; 3.92% in assay [6]. Also, the inhibition is 1.17% in [7]; 2.47% in assay [8]; 9.09% in [9]; 2.06% in assay [10]; -7.33% in [11]; -0.9% in assay [12]. Also, the inhibition is -0.83% in [13]; 0.05% in assay [14]; 1.74% in [15]; -1.62% in assay [16]; 2.75% in assay [17]; 1.09% in assay [18]. Besides, the inhibition in assay [19] stood at 2.04%; in assay [20], 2.47%.
Consider `Fc1ccc(-c2ncn(C3CCNCC3)c2-c2ccnc(Oc3cccc(C(F)(F)F)c3)n2)cc1`, for which the inhibition was 2.32% in assay [1]; 1.68% in assay [2]; 2.55% in assay [3]; 3.94% in assay [4]; 1% in assay [5]; 6.2% in assay [6]. For the same compound, the inhibition was 3.08% in assay [7]; 3.94% in assay [8]; 10.1% in assay [9]; 2.14% in assay [10]; -3.17% in assay [11]; 0.21% in [12]. The inhibition in [13] was 0.54%; in assay [14], -0.47%; in [15], 4.14%; in [16], 2.67%; in assay [17], 3.47%; in [18], 1.93%. For the same compound, the inhibition was determined as 1.59% in assay [19] and 2.87% in [20].
`COc1ccccc1Oc1nccc(-c2c(-c3ccc(F)cc3)ncn2C2CCNCC2)n1`: the inhibition in assay [1] came to 0.38%; in assay [2] it was 0.36%; in assay [3], 2.55%; in assay [4] it was 1.54%; in assay [5], 1.9%; in assay [6], 1.95%. The inhibition was 1.78% in assay [7]; 3.3% in assay [8]; 9.96% in assay [9]; 3.73% in assay [10]; -0.63% in assay [11]; -0.35% in assay [12]. In addition, the inhibition is 1.16% in [13]; 0.68% in assay [14]; -3.29% in assay [15]; -4.97% in [16]; 3.92% in assay [17]; 6.31% in [18]. Besides, the inhibition in assay [19] was found to be 2.09%; in [20] it was 2.74%.
Consider `O=C1NC(=O)C(c2ccccc2)=C1Nc1ccccc1`, for which the inhibition in assay [1] was found to be 0.9%; in assay [2], 1.31%; in assay [3], 2.55%; in assay [4], 2.42%; in [5] it was 1.12%; in assay [6] it was 3.13%. Further, the inhibition was 6.74% in assay [7]; 8.58% in assay [8]; 5% in [9]; 9.97% in assay [10]; -0.01% in assay [11]; 0.95% in assay [12]. Further, the inhibition is 0.3% in assay [13]; 2.08% in assay [14]; -1.64% in assay [15]; -0.66% in assay [16]; 3.55% in assay [17]; 3.97% in assay [18]. The values for the inhibition in assay [19] and in assay [20] were 1.95% and 2.47%, respectively.
Regarding `Fc1ccc(-c2ncn(C3CCNCC3)c2-c2ccnc(Oc3ccc(Cl)cc3)n2)cc1`, the inhibition was -0.28% in assay [1]; -0.24% in [2]; 0.02% in [3]; 0.86% in assay [4]; -0.38% in assay [5]; 5.21% in [6]. Also, the inhibition in [7] was -0.19%; in [8], 0.67%; in assay [9], 6.72%; in assay [10], -5.01%; in assay [11], -1.47%; in [12] it was 2.44%. Also, the inhibition in assay [14] is 1.34%; in assay [15] it was -7.21%; in [16] it was -8.03%; in [17], 0.6%; in assay [18], 0.3%; in [19], 0.15%. For the same compound, in assay [20], the inhibition turned out to be 1.78%.
Regarding `O=C(O)c1ccc(Oc2nccc(-c3c(-c4ccc(F)cc4)ncn3C3CCNCC3)n2)cc1`, the inhibition was determined as 1.59% in assay [1]; 2.05% in assay [2]; 1.18% in assay [3]; 0.93% in assay [4]; 1.33% in assay [5]; 5.64% in assay [6]. The inhibition in assay [7] was found to be 3.68%; in [8], 4.13%; in assay [9], 9.55%; in assay [10] it was 1.88%; in assay [11], 6.62%; in [12] it was 6.33%. Also, the inhibition in assay [13] is 0.85%; in assay [14] it was 2%; in assay [15], 4.95%; in assay [16], 5.6%; in [17] it was 1.09%; in assay [18] it was 3.62%. Further, the inhibition in [19] amounted to 1.55%; in assay [20], 3.29%.

As a reminder, the inhibition is the relative decrease from the control value, in per cent.
